Results from the supplement of paper PMC8728848.
Some of the results follow.

Tests used:
Test in all cases: glycan array binding signal (z-score within array); higher = stronger binding
Conditions in all cases: glycan notation: IUPAC condensed, linker removed
Gal6S(b1-4)Glc = molecular target: Gal6S(b1-4)Glc
How it was run: (§1)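 Columns mapping to the same glycan were averaged after glycan names were converted to IUPAC-condensed notation. The data come from 3228 arrays in the Consortium for Functional Glycomics database, limited to those with an available protein sequence. Binding is reported as a within-array Z-score averaged across arrays of one protein sequence and across linkers.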

Gal6S(b1-4)Glc6S = molecular target: Gal6S(b1-4)Glc6S
How it was run: as §1

Gal6S(b1-4)GlcNAc = molecular target: Gal6S(b1-4)GlcNAc
How it was run: as §1

Gal6S(b1-4)GlcNAc6S = molecular target: Gal6S(b1-4)GlcNAc6S
How it was run: as §1

GalNAc(a1-3)Gal = molecular target: GalNAc(a1-3)Gal
How it was run: as §1

GalNAc(a1-3)GalNAc = molecular target: GalNAc(a1-3)GalNAc
How it was run: as §1

[1] = molecular target: GalNAc(a1-3)GalNAc(b1-3)Gal(a1-4)Gal(b1-4)Glc
How it was run: as §1

[2] = molecular target: GalNAc(a1-3)GalNAc(b1-3)Gal(a1-4)Gal(b1-4)GlcNAc
How it was run: as §1

GalNAc(b1-3)Gal = molecular target: GalNAc(b1-3)Gal
How it was run: as §1

[3] = molecular target: GalNAc(b1-3)Gal(a1-4)Gal(b1-4)GlcNAc
How it was run: as §1

[4] = molecular target: GalNAc(b1-3)Gal(a1-4)Gal(b1-4)GlcNAc(b1-3)Gal(b1-4)Glc
How it was run: as §1

[5] = molecular target: GalNAc(b1-3)Gal(a1-6)Gal(b1-4)Glc
How it was run: as §1

GalNAc(b1-3)GalNAc = molecular target: GalNAc(b1-3)GalNAc
How it was run: as §1

GalNAc(b1-4)Gal(b1-4)Glc = molecular target: GalNAc(b1-4)Gal(b1-4)Glc
How it was run: as §1

GalNAc(b1-4)GlcNAc = molecular target: GalNAc(b1-4)GlcNAc
How it was run: as §1

[6] = molecular target: GalNAc(b1-4)GlcNAc(b1-2)Man(a1-3)[GalNAc(b1-4)GlcNAc(b1-2)Man(a1-6)]Man(b1-4)GlcNAc(b1-4)GlcNAc
How it was run: as §1

GalNAc(b1-4)GlcNAc6S = molecular target: GalNAc(b1-4)GlcNAc6S
How it was run: as §1

GalNAc(b1-6)GalNAc = molecular target: GalNAc(b1-6)GalNAc
How it was run: as §1

GalNAc3S(b1-4)GlcNAc = molecular target: GalNAc3S(b1-4)GlcNAc
How it was run: as §1

GalNAc3S(b1-4)GlcNAc3S = molecular target: GalNAc3S(b1-4)GlcNAc3S
How it was run: as §1

GalNAc4S6S(b1-4)GlcNAc = molecular target: GalNAc4S6S(b1-4)GlcNAc
How it was run: as §1

GalNAc6S(b1-4)GlcNAc = molecular target: GalNAc6S(b1-4)GlcNAc
How it was run: as §1

Glc(a1-4)Glc = molecular target: Glc(a1-4)Glc
How it was run: as §1

[7] = molecular target: Glc(a1-4)Glc(a1-4)Glc(a1-4)Glc
How it was run: as §1

Glc(a1-6)Glc(a1-6)Glc = molecular target: Glc(a1-6)Glc(a1-6)Glc
How it was run: as §1

[8] = molecular target: Glc(a1-6)Glc(a1-6)Glc(a1-6)Glc
How it was run: as §1

Glc(b1-4)Glc = molecular target: Glc(b1-4)Glc
How it was run: as §1

Glc(b1-6)Glc = molecular target: Glc(b1-6)Glc
How it was run: as §1

GlcA(b1-3)Gal = molecular target: GlcA(b1-3)Gal
How it was run: as §1

GlcA(b1-3)GlcNAc = molecular target: GlcA(b1-3)GlcNAc
How it was run: as §1

GlcA(b1-6)Gal = molecular target: GlcA(b1-6)Gal
How it was run: as §1

[9] = molecular target: GlcNAc(a1-3)Gal(b1-4)GlcNAc
How it was run: as §1

[10] = molecular target: GlcNAc(a1-4)Gal(b1-3)GlcNAc
How it was run: as §1

[11] = molecular target: GlcNAc(a1-4)Gal(b1-4)GalNAc
How it was run: as §1

[12] = molecular target: GlcNAc(a1-4)Gal(b1-4)GlcNAc
How it was run: as §1

[13] = molecular target: GlcNAc(a1-4)Gal(b1-4)GlcNAc(b1-3)Gal(b1-4)Glc
How it was run: as §1

[14] = molecular target: GlcNAc(a1-4)Gal(b1-4)GlcNAc(b1-3)Gal(b1-4)GlcNAc
How it was run: as §1

[15] = molecular target: GlcNAc(a1-4)Gal(b1-4)GlcNAc(b1-3)Gal(b1-4)GlcNAc(b1-3)Gal(b1-4)GlcNAc
How it was run: as §1

[16] = molecular target: GlcNAc(a1-4)Gal(b1-4)GlcNAc(b1-3)Gal(b1-4)[Fuc(a1-3)]GlcNAc(b1-3)Gal(b1-4)[Fuc(a1-3)]GlcNAc
How it was run: as §1

[17] = molecular target: GlcNAc(a1-6)Gal(b1-4)GlcNAc
How it was run: as §1

[18] = molecular target: GlcNAc(b1-2)Gal(b1-3)GalNAc
How it was run: as §1

[19] = molecular target: GlcNAc(b1-2)Man(a1-3)[GlcNAc(b1-2)Man(a1-6)]Man(b1-4)GlcNAc(b1-4)GlcNAc
How it was run: as §1

[20] = molecular target: GlcNAc(b1-2)Man(a1-3)[GlcNAc(b1-2)Man(a1-6)]Man(b1-4)GlcNAc(b1-4)[Fuc(a1-6)]GlcNAc
How it was run: as §1

[21] = molecular target: GlcNAc(b1-2)Man(a1-3)[GlcNAc(b1-4)][GlcNAc(b1-2)Man(a1-6)]Man(b1-4)GlcNAc(b1-4)GlcNAc
How it was run: as §1

[22] = molecular target: GlcNAc(b1-2)[GlcNAc(b1-4)]Man(a1-3)[GlcNAc(b1-2)Man(a1-6)]Man(b1-4)GlcNAc(b1-4)GlcNAc
How it was run: as §1

B1: Calsepa (Calystegia sepium), P93114 (protein)
chain: MAVPMDTISGPWGNNGGNFWSFRPVNKINQIVISYGGGGNNPIALTFSSTKADGSKDTITVGGGGPDSITGTEMVNIGTDEYLTGISGTFGIYLDNNVLRSITFTTNLKAHGPYGQKVGTPFSSANVVGNEIVGFLGRSGYYVDAIGTYNRHK
How did the “glycan array binding signal (z-score)” value (Gal6S(b1-4)Glc) turn out when B1 was run?
The value was -0.25.

And the “glycan array binding signal (z-score)” value (Gal6S(b1-4)Glc6S)?
The value was -0.237.

What about the “glycan array binding signal (z-score)” value (Gal6S(b1-4)GlcNAc) of the same binder?
The value was -0.251.

And the “glycan array binding signal (z-score)” value (Gal6S(b1-4)GlcNAc6S)?
The value was -0.246.

And the “glycan array binding signal (z-score)” value (GalNAc(a1-3)Gal)?
Its value is -0.245.

And the “glycan array binding signal (z-score)” value (GalNAc(a1-3)GalNAc)?
Its value is -0.247.

What about the “glycan array binding signal (z-score)” value [1] of the same binder?
The value was -0.271.

And the “glycan array binding signal (z-score)” value [2]?
The value was -0.271.

And the “glycan array binding signal (z-score)” value (GalNAc(b1-3)Gal)?
Its value is -0.237.

What about the “glycan array binding signal (z-score)” value [3] of the same binder?
Its value is -0.247.

What about the “glycan array binding signal (z-score)” value [4] of the same binder?
The value was -0.247.

What about the “glycan array binding signal (z-score)” value [5] of the same binder?
Its value is -0.267.

What about the “glycan array binding signal (z-score)” value (GalNAc(b1-3)GalNAc) of the same binder?
The value was -0.246.

And the “glycan array binding signal (z-score)” value (GalNAc(b1-4)Gal(b1-4)Glc)?
Its value is -0.267.

What about the “glycan array binding signal (z-score)” value (GalNAc(b1-4)GlcNAc) of the same binder?
The value was -0.243.

What about the “glycan array binding signal (z-score)” value [6] of the same binder?
The value was -0.201.

And the “glycan array binding signal (z-score)” value (GalNAc(b1-4)GlcNAc6S)?
The value was -0.274.

What about the “glycan array binding signal (z-score)” value (GalNAc(b1-6)GalNAc) of the same binder?
The value was -0.27.

What about the “glycan array binding signal (z-score)” value (GalNAc3S(b1-4)GlcNAc) of the same binder?
Its value is -0.271.

What about the “glycan array binding signal (z-score)” value (GalNAc3S(b1-4)GlcNAc3S) of the same binder?
The value was -0.268.

What about the “glycan array binding signal (z-score)” value (GalNAc4S6S(b1-4)GlcNAc) of the same binder?
The value was -0.269.

And the “glycan array binding signal (z-score)” value (GalNAc6S(b1-4)GlcNAc)?
Its value is -0.271.

And the “glycan array binding signal (z-score)” value (Glc(a1-4)Glc)?
Its value is -0.246.

What about the “glycan array binding signal (z-score)” value [7] of the same binder?
The value was -0.273.

And the “glycan array binding signal (z-score)” value (Glc(a1-6)Glc(a1-6)Glc)?
The value was -0.249.

What about the “glycan array binding signal (z-score)” value [8] of the same binder?
Its value is -0.276.

And the “glycan array binding signal (z-score)” value (Glc(b1-4)Glc)?
Its value is -0.247.

What about the “glycan array binding signal (z-score)” value (Glc(b1-6)Glc) of the same binder?
The value was -0.248.

And the “glycan array binding signal (z-score)” value (GlcA(b1-3)Gal)?
The value was -0.244.

And the “glycan array binding signal (z-score)” value (GlcA(b1-3)GlcNAc)?
The value was -0.245.

What about the “glycan array binding signal (z-score)” value (GlcA(b1-6)Gal) of the same binder?
The value was -0.25.

What about the “glycan array binding signal (z-score)” value [9] of the same binder?
The value was -0.239.

What about the “glycan array binding signal (z-score)” value [10] of the same binder?
The value was -0.24.

And the “glycan array binding signal (z-score)” value [11]?
Its value is -0.237.

What about the “glycan array binding signal (z-score)” value [12] of the same binder?
Its value is -0.243.

What about the “glycan array binding signal (z-score)” value [13] of the same binder?
The value was -0.253.

What about the “glycan array binding signal (z-score)” value [14] of the same binder?
The value was -0.249.

And the “glycan array binding signal (z-score)” value [15]?
The value was -0.246.

What about the “glycan array binding signal (z-score)” value [16] of the same binder?
Its value is -0.14.

And the “glycan array binding signal (z-score)” value [17]?
The value was -0.246.

What about the “glycan array binding signal (z-score)” value [18] of the same binder?
Its value is -0.245.

And the “glycan array binding signal (z-score)” value [19]?
Its value is 1.48.

And the “glycan array binding signal (z-score)” value [20]?
The value was -0.115.

And the “glycan array binding signal (z-score)” value [21]?
Its value is 5.

What about the “glycan array binding signal (z-score)” value [22] of the same binder?
The value was -0.261.
